Assay results as given in PubChem BioAssay AID1745845 (National Center for Advancing Translational Sciences (NCATS), 2022).
In all, about 360,000 compounds went through this assay and about 2,600 (0.72%) were called active. Inconclusive means that the source gave no clear call. Such entries were picked first, then a sample of the others. Calls follow the shape of the dose curve; as a rule, active = well fitted inhibition curve with a large enough effect; inconclusive = small, poorly fitted or top-dose-only effect; inactive = no such curve, though single readings can be large or run the other way. Where the call is inconclusive, the potency comes from a doubtful curve fit.

Assay: Primary qHTS for Inhibitors of ATXN expression; also: nearly all actives have a fitted effect of over 55% in size
Settings: HEK-293 ATXN2-luciferase reporter, luminescence, 24 h; activity change, negative = inhibition: at 57 µM (top of the series)
How it was run: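 ATXN2-luciferase reporter cells (luciferase flanked by upstream and downstream ATXN2 gene portions) were treated 24 h at 37 °C with compounds at up to 57 uM. SteadyGlo luminescence gave expression; GF-AFC fluorescence gave viability.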
% is scaled to controls: 0 for no effect and ±100 for the full control effect; potency is read from the fitted curve at half-maximal effect; tags tell the direction and shape of the fitted curve.

Activity change, negative = inhibition, inactive:
Cc1cc(C(=O)CSc2nnc(Nc3ccccc3F)s2)c(C)n1CC1CCCO1 (stereo not given) 4.55%
COc1ccc(N2CCN(CC(O)COc3ccc4c(c3)CCC4)CC2)cc1 (stereo not given) -23.1%
Cc1cccc(C)c1NC(=O)c1sccc1SCC#N -3.18%
Cc1c(Cl)cccc1NC(=S)NCc1cccs1 -23.2%
COc1ccc2c(c1)C(=O)C(=O)N2CC1COc2ccccc2O1 (stereo not given) -12.3%
CC1CN(C(=O)CCC(=O)NCCCN2CCN(Cc3ccccc3)CC2)c2cc(Cl)ccc2O1 (stereo not given) -26.3%
CC(=O)CCc1ccc(OCC(O)CNCCOc2ccc(C)cc2)cc1 (stereo not given) -21.7%
Cn1c(-c2cccc(Br)c2)cnc1NCc1cccc(F)c1 -21.6%
O=C(NC(=S)NCC1CCCO1)c1ccccc1[N+](=O)[O-] (stereo not given) -10.9%
O=C(Nc1ccc2c(c1)CCC2)c1ccccc1 55.5%
O=C(NC1CCCCC1)NS(=O)(=O)c1ccc2c(c1)CCC2 12.1%
COc1ccccc1C(=O)Nc1ccccc1C(=O)OCc1cc(=O)n2ccsc2n1 3.37%
Cc1cccc(NC(=O)CSc2nnc(CNC(=O)c3ccco3)n2C)c1C -5.94%
Cc1cc(Br)ccc1NC(=O)CN(C)C(=O)CNC(=O)Cc1ccccc1 5.64%
Cc1cccc(NC(=O)C2CCCN(S(=O)(=O)c3c(C)n[nH]c3C)C2)c1 (stereo not given) -6.31%
COc1ccc(Cn2cc(C(=O)c3ccc(F)cc3)c(=O)c3cc4c(cc32)OCCO4)cc1 2.29%
Cc1cc(-n2c(C)cc(C(=O)CSc3nc4ccccc4c(=O)n3Cc3ccco3)c2C)no1 29.8%

Potency, inconclusive:
CCOC(=O)c1c(/N=C/N(C)C)sc(/C=N/Nc2ccccc2)c1-c1ccccc1Cl 11.2 µM [inhibitor, partial curve, poor fit]
CCCC[n+]1ccn(C2=C([O-])c3ccccc3C(=O)/C2=N\S(=O)(=O)c2ccccc2)c1 15.8 µM [inhibitor, partial curve]
O=C(NCc1ccc(Cl)cc1)C1CCN(C(=O)c2cnn(-c3ccccc3)c2-n2cccc2)CC1 31.6 µM [inhibitor, partial curve, poor fit]
CCCCCCCCN1C(=O)[C@H](CC(=O)NCCc2ccccc2OC)C[C@@]2(C(=O)OCC)CCCC=C12 39.8 µM [inhibitor, single point]
O=C(CCc1ccccc1)NC(NC(=S)Nc1ccc(Br)cc1)C(Cl)(Cl)Cl (stereo not given) 25.1 µM [inhibitor, partial curve, poor fit]
O=C1COc2ccc(C(=O)COC(=O)/C=C/c3ccc(Br)o3)cc2N1 39.8 µM [inhibitor, single point]
S=C(SSC(=S)N1CCOCC1)N1CCOCC1 0.631 µM [inhibitor, full curve, poor fit]
O=C(NOCc1ccccc1)c1ccc(Cl)cc1Cl 10 µM [inhibitor, partial curve, poor fit]
CCO[C@H]1OC(C(=O)N2CCCCCCC2)=C[C@@H](c2csc3ccccc23)[C@@H]1CCCO 31.6 µM [inhibitor, partial curve, poor fit]
Cc1ccc2oc(C(=O)NCC(c3ccc(Cl)cc3)N3CCOCC3)c(C)c2c1 (stereo not given) 39.8 µM [inhibitor, single point]
CCOc1ccccc1N1CN(Cc2ccccc2)CNC1=S 37.7 µM [inhibitor, single point]
CCOc1ccc(-n2c(-c3ccccc3)c[n+]3c2CCCCC3)cc1 8.91 µM [inhibitor, partial curve]
CCCOc1ccc(CNC(=O)CCCN2C(=O)CSc3c2c(C)nn3-c2ccccc2)cc1 39.8 µM [inhibitor, single point]
O=C(C1CCC(Cn2c(=S)[nH]c3ccccc3c2=O)CC1)N1CCN(c2ccccn2)CC1 (stereo not given) 26.7 µM [inhibitor, single point]
CCOC(=O)c1csc(NC(=O)c2ccc(OCC)cc2)n1 26.7 µM [inhibitor, partial curve, poor fit]
CC(C)=CCc1c(O)c(CC=C(C)C)c2occ(-c3ccc(O)cc3)c(=O)c2c1O 39.8 µM [inhibitor, single point]
COc1cccc(/C=N/NC(=O)CSc2cccc3cccnc23)c1 37.7 µM [inhibitor, single point]
Cc1cccc(CN2CCN(C(=O)CCl)CC2)c1 28.2 µM [inhibitor, single point]
COc1ccc(C(=O)NC(=S)NNC(=O)c2ccncc2)cc1Br 28.2 µM [inhibitor, single point]
Cc1ccc(CN2C(=O)C(=O)c3cc(Br)cc(C)c32)cc1 39.8 µM [inhibitor, single point]
Cc1ccccc1Nc1c(-c2cccnc2)nc2cccc(C)n12 31.6 µM [inhibitor, single point]
C=CS(=O)(=O)N(Cc1ccc(Cl)c(Cl)c1)C[C@@H](O)CO 14.1 µM [inhibitor, partial curve]
CCCCCCCCC(=O)NNC(=O)c1c(O)c2ccccc2n(CCC)c1=O 39.8 µM [inhibitor, partial curve, poor fit]
C=CCOc1c(Br)cc(CNc2ccc3[nH]c(=O)[nH]c3c2)cc1OCC 0.067 µM [inhibitor, full curve, poor fit]
NNC(=O)CSCc1ccc(Cl)cc1Cl 1.06 µM [inhibitor, partial curve, poor fit]
CCN(CC)CCSc1nnc2c3cc(C)ccc3n(Cc3ccccc3)c2n1 22.4 µM [inhibitor, partial curve]
Cc1cccc(NC(=O)c2n[nH]c([N+](=O)[O-])c2Br)c1C 3.55 µM [inhibitor, partial curve, poor fit]

Potency, active:
COc1ccccc1C=CC(=O)C=Cc1ccccc1OC 16.8 µM
